ChEMBL document CHEMBL1201862, “PubChem BioAssay data set” (2004)
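Tested at 5 concentrations; 48 h exposure; 96-well plates; endpoints linearly interpolated, else capped at highest concentration. Abbreviation: GI50, concentration required for 50% inhibition of growth.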 Activity calls are given as the source filed them. Cut-off read from the data, not from the text of the source: active = GI50 up to about 1.1 µM and inactive = higher.

These compounds were tested on NCI-H322M (assay: NCI anticancer screen, dose series, 48 h).
With `Oc1cc(-c2cccc(OC(F)(F)F)c2)nc2cc3c(cc12)OCO3` the GI50 was active: 0.217 µM.
For `COc1ccc(-c2cc(O)c3cc4c(cc3n2)OCO4)cc1OC`, the GI50 was inactive: > 100 µM.
For `CC(=O)c1ccc2c(c1)CC1(C2)Cc2cc3c(cc2C1)C(=O)CC3` (stereo unspecified), the GI50 was active: 0.92 µM.
`CC(=O)OC1C(O)C(C)OC(OC2C(OC(=O)C3CCC4C(C3)OC3(CC(OC(=O)/C=C/c5ccccc5)C(C)CO3)C43CO3)OC(C)C(O)C2OC(C)=O)C1O` (stereo unspecified) was tested, and the GI50 was active: 0.0157 µM.
In the case of `NS(=O)(=O)c1ccc(NCc2cnc3ccccc3c2)cc1`, the GI50 was inactive: > 100 µM.
In the case of `CN(C)CC1CCC/C(=C\c2ccc(OC(=O)/C=C/c3ccc(Cl)c(Cl)c3)cc2)C1=O` (stereo unspecified), the GI50 was inactive: 25.2 µM.
In the case of `COC(=O)C1OC(O[C@H]2CC[C@]3(C)[C@H]4CC=C5[C@@H]6CC(C)(C)CC[C@]6(C(=O)OC6OCC(O)C(O)C6OC6OC(C)C(OC7OCC(O)C(O)C7O)C(OC7OCC(O)(CO)C7O)C6O)[C@H](O)C[C@@]5(C)[C@]4(C)CC[C@H]3C2(C)C)C(O)C(O)C1O` (stereo partly specified), the GI50 was inactive: 2.39 µM.
With `c1cncc(-c2ncc3cccnc3n2)c1` the GI50 was inactive: > 100 µM.
For `O=C(c1nc2ccc(Cl)cc2[nH]c1=O)C(O)c1ccco1` (stereo unspecified), the GI50 was inactive: > 100 µM.
`O=C(O)[C@@H]1C2CC([C@@H]1C(=O)O)[C@H](N1C(=O)CCC1=O)[C@@H]2Br` (stereo partly specified) was tested, and the GI50 was inactive: > 100 µM.
For `COc1nc2ccc(CNc3ccc(C(=O)NC(CCC(=O)O)C(=O)O)cc3)cc2nc1OC` (stereo unspecified), the GI50 was inactive: > 100 µM.
For `Cc1ccc(N2C(=O)C3c4[nH]c5ccc(C)cc5c4C4CCC(C(C)(C)C)CC4C3C2=O)cc1` (stereo unspecified), the GI50 was inactive: 17.4 µM.
In the case of `COc1nc(=O)n(COC(CO)CN2C(=O)c3ccccc3C2=O)cc1Cc1cccc(OCc2ccccc2)c1` (stereo unspecified), the GI50 was inactive: 24.8 µM.
`N#CCc1nc(Cc2ccccc2)n[nH]1` was tested, and the GI50 was inactive: > 100 µM.
In the case of `Cc1c2c(cc3c(=O)ccn(CCN(C)C)c13)c(=O)ccn2CCN(C)C`, the GI50 was inactive: 6.76 µM.
`O[C@@]1(C#Cc2ccc3c(c2)OCO3)CCC[C@H]1NCc1ccccc1` was tested, and the GI50 was inactive: 31.4 µM.
`COc1cc(/C=C(\NC(=O)c2ccccc2)c2nc3c(O)nc(S)nc3[nH]2)cc(OC)c1OC` was tested, and the GI50 was inactive: > 100 µM.
`Clc1ccc(C2=NNC(c3cccc(Cl)c3)C2)cc1` (stereo unspecified) was tested, and the GI50 was inactive: 40.5 µM.
`c1ccc(-c2cc(-c3cccs3)c(-c3cccs3)o2)cc1` was tested, and the GI50 was inactive: > 100 µM.
`N#CC1(C#N)C(C#N)(C#N)C1(C#N)C(N)=O` was tested, and the GI50 was inactive: > 100 µM.
For `CCCCC[C@H]1CC=CC(=O)O1`, the GI50 was inactive: 9.12 µM.
In the case of `Cc1cc(C)nc(NS(=O)(=O)c2ccc(Nc3nncc(=O)n3N)cc2)n1`, the GI50 was inactive: 33.1 µM.
In the case of `CC(C)(C)OC(=O)N1C/C=C\C(=O)C2(OCCO2)c2ccccc21`, the GI50 was inactive: 78.5 µM.
`Nc1ccc(Oc2ccc(C34CC5CC6C3CC3CC4C(C5)C6(c4ccc(Oc5ccc(N)cc5)cc4)C3)cc2)cc1` was tested, and the GI50 was inactive: 12.4 µM.
With `CC1(C=O)CCC23COC4(CCC5C6(C)CCC(OC7OCC(OC8OC(CO)C(O)C(OC9OC(CO)C(O)C(O)C9O)C8OC8OCC(O)C(O)C8O)C(O)C7OC7OC(CO)C(O)C(O)C7O)C(C)(C)C6CCC5(C)C4(C)CC2O)C3C1` (stereo unspecified) the GI50 was active: 0.979 µM.
For `CCOC(=O)/C(C#N)=N\Nc1ccc(-n2c(C)nc3ccccc3c2=O)cc1`, the GI50 was inactive: > 100 µM.
In the case of `CN(N=O)C(=O)NNC(=O)N(C)N=O`, the GI50 was inactive: > 100 µM.
With `CN1Cc2cc3cc4c(cc3nc2N(C)C1)OCCO4` the GI50 was inactive: > 100 µM.
In the case of `CCCCCCCCCCCCCP(=O)(O)O`, the GI50 was inactive: > 100 µM.
For `N#Cc1ncn(CCO)c1N`, the GI50 was inactive: > 100 µM.
With `O=C1c2cccc3cc4ccccc4c(c23)C(=O)N1CCCNCCNCCCN1C(=O)c2cccc3cc4ccccc4c(c23)C1=O` the GI50 was active: 0.0262 µM.
`Cc1nc2ccccc2n1CCc1nc2ccccc2s1` was tested, and the GI50 was inactive: > 100 µM.
`N#Cc1c(N)nc(SCc2ccccc2)c(C#N)c1-c1ccc(O)cc1` was tested, and the GI50 was inactive: 12.9 µM.
`C#C/C=C/CC1OC(C(Br)CC)CC(Br)C2CC1O2` (stereo unspecified) was tested, and the GI50 was inactive: 50 µM.
For `COC1OC(=O)[C@H]2O[N+]([O-])=C(C)[C@@H]12` (stereo partly specified), the GI50 was inactive: > 100 µM.
`O=c1c2cc(Br)ccc2nc(CNc2ccccc2)n1-c1ccccc1` was tested, and the GI50 was inactive: 24.7 µM.
With `NC(=O)CNC(=O)[C@@H]1C[C@@H](OCCC(=O)O)CN1C(=O)OCc1ccccc1` the GI50 was inactive: > 100 µM.
For `CN(C)S(=O)(=O)/N=C/c1cccc(/C=N/S(=O)(=O)N(C)C)c1`, the GI50 was inactive: > 100 µM.
In the case of `O=C(O)CC(C(=O)O)C1c2ccccc2-c2ccccc21` (stereo unspecified), the GI50 was inactive: > 100 µM.
`CCOC(=O)c1ccc(NC(=O)O/N=C(/Cl)C(C)C)cc1` was tested, and the GI50 was inactive: 16.7 µM.
With `CCCCn1c(C)c(C(=O)CC)c(C(=O)NCCN2CCN(c3ccccc3Cl)CC2)c1C` the GI50 was inactive: 17.4 µM.
In the case of `C/C(=N/NC(=S)N(C)CCc1ccccn1)c1cnccn1`, the GI50 was active: < 0.0231 µM.
For `CC1(C)CC(=O)C(C(=O)C(=O)NC2=C(Cl)C(=O)c3ccccc3C2=O)C(=O)C1`, the GI50 was inactive: > 100 µM.
For `CCNC(=S)N/N=C(\C)c1cccc(C)n1`, the GI50 was inactive: 58.5 µM.
With `Nc1nnc(-c2ccco2)c(-c2ccco2)n1` the GI50 was inactive: > 100 µM.
In the case of `C=C1CC(c2ccc(O)c(OC)c2)Oc2c(OC)cccc21` (stereo unspecified), the GI50 was inactive: 61.7 µM.
With `CCOC(=O)c1c[nH]c(C(=O)OCC)c1-c1cccn1-c1ccccc1` the GI50 was inactive: 21.4 µM.
With `O=CC12CCCN1CCC2` the GI50 was inactive: > 100 µM.
In the case of `NC(=O)C(=Cc1ccc(C(O)P(=O)(O)O)cc1)C(N)=O` (stereo unspecified), the GI50 was inactive: > 100 µM.
In the case of `CSc1nc(=O)cnn1C`, the GI50 was inactive: > 100 µM.
In the case of `COc1ccc(NCn2nc(CCCCCCCCc3nn(CNc4ccc(OC)cc4)c(=S)o3)oc2=S)cc1`, the GI50 was inactive: > 100 µM.
For `CN(CCCN1CCCC1)CCCN(C)C(=O)Cc1ccc(Cl)c(Cl)c1`, the GI50 was inactive: 14.8 µM.
In the case of `O=C1OC2(OC2c2ccc(Cl)cc2)c2ccccc21` (stereo unspecified), the GI50 was inactive: > 100 µM.
In the case of `COc1ccc(N2C(=O)C3c4[nH]c5c(C)cccc5c4C4CCC(c5ccccc5)CC4C3C2=O)cc1` (stereo unspecified), the GI50 was inactive: 17.6 µM.
In the case of `CC1(C)CC[C@]2(C(=O)O)CC[C@]3(C)C(=CCC4=C5C[C@H](O)[C@H](O)[C@@](C)(CO)[C@@]5(C)CC[C@]43C)[C@@H]2C1`, the GI50 was inactive: 36.1 µM.
`Cc1nnc(CC#N)n1NC(=O)CC#N` was tested, and the GI50 was inactive: > 100 µM.
With `O=C(CNC(=O)OCc1ccccc1)Oc1ccccc1` the GI50 was inactive: > 100 µM.
`O=C(N/N=C\c1ccc([N+](=O)[O-])s1)c1ccncc1` was tested, and the GI50 was inactive: 24.8 µM.
For `CC(C)(c1ccccc1)c1ccc(OC#N)cc1`, the GI50 was inactive: > 100 µM.
`COc1ccc(OCC(=O)O)c(C(=O)CCC(=O)O)c1` was tested, and the GI50 was inactive: > 100 µM.
With `CC/C(Cl)=N\OC(=O)Nc1ccc(F)c(Cl)c1` the GI50 was inactive: 17.5 µM.
With `N#Cc1ccccc1NC(=O)/C(=N\N)C(C(=O)c1ccncc1)C1OC(=O)c2ccccc21` (stereo unspecified) the GI50 was inactive: > 100 µM.
With `COc1cccc(SSc2cccc(OC)c2C(=O)O)c1C(=O)O` the GI50 was inactive: > 100 µM.
In the case of `O=C1C=CN(C2OC(CO)C(O)C2O)C(=O)C1` (stereo unspecified), the GI50 was inactive: 231 µM.
With `C[P+]1(c2ccccc2)CCCCC1` the GI50 was inactive: > 100 µM.
For `O=c1oc2nc(-c3ccccc3)cc(C(F)(F)F)c2n1Cc1ccccc1`, the GI50 was inactive: 4.19 µM.
With `O=C(Nc1ccccc1)c1cc(S(=O)(=O)Nc2n[nH]c(=O)n2-c2ccccc2)c(S)cc1Cl` the GI50 was inactive: > 100 µM.
In the case of `Cc1nc(Nc2ccc([N+](=O)[O-])cc2)sc1C(=O)/C=C/c1ccc(N(C)C)cc1`, the GI50 was inactive: 43.5 µM.
With `COC(=O)C(NC(=O)c1ccccc1)c1ccco1` (stereo unspecified) the GI50 was inactive: > 100 µM.
In the case of `COc1ccc(C(=O)/C=C/c2ccc(OCC(=O)O)cc2)cc1`, the GI50 was inactive: 51.3 µM.
For `CN(CCCCN(C)CCc1ccc(Cl)c(Cl)c1)CCCCN1CCCC1`, the GI50 was inactive: 1.59 µM.
For `O=C1[C@H](O)[C@@H]2C(O)O[C@H]3[C@@H]2N1C[C@H]3[Si](c1ccccc1)(c1ccccc1)c1ccccc1` (stereo partly specified), the GI50 was inactive: > 100 µM.
`CN(C)CCC(CCN(C)C)=NOC(=O)c1ccccc1` was tested, and the GI50 was inactive: > 100 µM.
`C[n+]1c2ccccc2c(C(=O)Nc2ccc(S(=O)(=O)Nc3ncccn3)cc2)c2ccccc21` was tested, and the GI50 was inactive: > 100 µM.
With `COCn1cnc2c(=O)n(-c3ccc(OC)cc3)c(=S)n(-c3ccc(OC)cc3)c21` the GI50 was inactive: > 100 µM.
In the case of `O=c1[nH]nc(-c2cccc([N+](=O)[O-])c2)[nH]1`, the GI50 was inactive: > 100 µM.
In the case of `O=C1c2c(n(Cc3ccccc3)c(=O)n2Cc2ccccc2)C(=O)N1Cc1ccccc1`, the GI50 was inactive: 33.4 µM.
`CCCCCCCCOCC(CO)OCCCCCCCC` (stereo unspecified) was tested, and the GI50 was inactive: 19.5 µM.
With `CC(O)C(O)C(O)C(/C=N\Nc1ccccc1)=N/Nc1ccccc1` (stereo unspecified) the GI50 was inactive: 7.57 µM.
For `CCCCCCCCCCCCCCNCC(OCC)OCC`, the GI50 was inactive: 19.5 µM.
In the case of `CC1(O)CC(=O)c2c(cc3ccc(-c4c5c(c(O)c6c(O)cccc46)C(=O)CC(C)(O)C5)c(O)c3c2O)C1` (stereo unspecified), the GI50 was active: 0.161 µM.
`CCOC(=O)c1oc2c(OC)ccc3c2c1CCC3` was tested, and the GI50 was inactive: > 100 µM.
For `Cc1nnc(N)nc1/C=C\c1ccc(N(C)C)cc1`, the GI50 was inactive: 25.5 µM.
For `Cc1c(C2=NN=C(/N=N/c3c(O)cccc3O)/C2=C/c2ccccc2)c(=O)n(-c2ccccc2)n1C`, the GI50 was inactive: > 100 µM.
For `O=S(=O)(O)c1cc2ccc1/C=C\c1ccc(cc1S(=O)(=O)O)/N=N\c1ccc(c(S(=O)(=O)O)c1)/C=C\c1ccc(cc1S(=O)(=O)O)/N=N\2`, the GI50 was inactive: > 100 µM.
In the case of `Cc1ccc(SSCCCS(=O)O)cc1`, the GI50 was inactive: 45 µM.
In the case of `CCN1C[C@]2(C)CC[C@H](OC)C34C5C[C@@H]6[C@@H](OC)C[C@@](OC)(C5[C@H]6OCc5ccccc5)C(C13)[C@H](OC(C)=O)[C@@H]42` (stereo partly specified), the GI50 was inactive: > 100 µM.
`COC(=O)CC[C@]12C[C@]13CC[C@]1(C)C4C(C)C[C@]5(CC(C)C(=O)O5)OC4CC1(C)C3CCC2C(C)(C)O` (stereo partly specified) was tested, and the GI50 was inactive: > 100 µM.
`COC(=O)[C@@]12OC[C@]34C([C@@H](O)C1O)[C@@]1(C)CC(=O)C(O)=C(C)C1C[C@H]3OC(=O)[C@H](OC(=O)/C=C(/c1ccccc1)C(F)(F)F)[C@H]42` (stereo partly specified) was tested, and the GI50 was inactive: 11.4 µM.
With `CN1N=C2c3ccccc3CC[C@H]2C1c1ccccc1` (stereo partly specified) the GI50 was inactive: 68.9 µM.
In the case of `COc1cc2c(cc1O)[C@H](C)C(c1ccc(Cl)cc1)O2` (stereo partly specified), the GI50 was inactive: 24 µM.
